Reference: PubChem BioAssay AID504832 (National Center for Advancing Translational Sciences (NCATS), 2011)
Hit rate of the full screen: of about 310,000 compounds, about 18,000 (5.8%) were called active. The inconclusive results got no clear call from the source; some entries with a clear call stand among them for comparison. Calls come from the whole dose curve; as a rule, active = well fitted inhibition curve with a large enough effect; inconclusive = small, poorly fitted or top-dose-only effect, or another doubt; inactive = no such curve, though single readings can be large or run the other way. No potency is given beside an inconclusive call; the fits are too rough.

Test: Primary qHTS for delayed death inhibitors of the malarial parasite plastid, 48 hour incubation
Details: P. falciparum luciferase growth in erythrocytes; series mostly up to 28.7 µM
Method in brief: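 Growth was read as firefly luciferase luminescence after a 48 h, 37 C, 5% CO2 exposure of compounds to reporter-bearing P. falciparum cultures (0.1% parasitemia, 2% hematocrit final) in Albumax-supplemented RPMI 1640.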
Potency is the fitted concentration of half-maximal effect; tags give direction and shape of the fitted curve.

Structure (SMILES)	Potency
O=C(CSc1nc2ccccc2[nH]1)N/N=C/c1ccncc1	inactive
Cc1cc(/C=C2\C(=O)NC(=S)N(C)C2=O)c(C)n1C1CCCCC1	inactive
CC1=NN(C(=S)Nc2ccccc2)C(C)(C)C1	inactive
COc1cccc(-n2c(CN3CCN(C)CC3)nc3ccc([N+](=O)[O-])cc3c2=O)c1	inconclusive [inhibitor, single point]
CCC(C)NCCCOc1c(C)cc(C)cc1Br (stereo not drawn)	inconclusive [inhibitor, single point]
O=C(CN1CCN(c2nc(-c3ccccc3)cs2)CC1)NNC(=O)c1ccco1	inactive
Fc1ccc(-c2nnc(SCc3cccnc3)o2)cc1	inactive
O=[N+]([O-])c1cc(-c2nnc(Nc3ccc(O)cc3)c3ccccc23)ccc1N1CCOCC1	inconclusive [inhibitor, partial curve]
C[n+]1ccc(/C=C/c2ccc(Br)cc2)cc1	active: 0.329 µM
Oc1ccc2ccccc2c1CN1CCN(C/C=C/c2ccccc2)CC1	inconclusive [inhibitor, full curve, poor fit]
CCOc1ccccc1N(CC(=O)Nc1cccc(OC)c1)S(=O)(=O)c1ccccc1	inconclusive [inhibitor, single point]
Cc1ccc(C(=O)COc2ccccc2-c2ccccc2)cc1	inconclusive [inhibitor, partial curve, poor fit]
CC(C)(C)[C@H]1C=C(C(=O)N2CCN(Cc3ccc4c(c3)OCO4)CC2)O[C@@H](OCCCCO)C1	inconclusive [inhibitor, partial curve]
C/C(CC(=O)Nc1cc(Cl)ccc1Cl)=N\NC(=O)c1ccccc1Br	inconclusive [inhibitor, full curve, poor fit]
O=C(NC(NC(=S)Nc1ccc(Cl)c(Cl)c1)C(Cl)(Cl)Cl)c1ccco1 (stereo not drawn)	inconclusive [inhibitor, single point]
CN(Cc1ccccc1)c1ccc2nnc(-c3ccccc3)n2n1	active: 4.15 µM
COc1ccc(N2CCc3c(C)nc4c(OC)cc(OC)cc4c32)cc1	inconclusive [inhibitor, full curve]
CCNC(=S)NNC(=O)Cn1c(=O)c2c(ncn2CCOC)n(Cc2ccccc2)c1=O	inactive
Clc1ccc(CN2CCN(c3ncccn3)CC2)c(Cl)c1	inactive
Cc1cc(/C=N/n2cnnc2)c(C)n1-c1cccc(Cl)c1	inactive
COc1ccccc1N1CCN(Cc2ccc(OC)c3ccccc23)CC1	inconclusive [inhibitor, single point]
Cc1cccc(-c2nc(S(=O)(=O)c3ccccc3)c(N3CCOCC3)o2)c1	inactive
O=C(NCc1ccccn1)c1ccc(Cl)c(S(=O)(=O)N2CCCCC2)c1	inconclusive [inhibitor, single point]
CC(=O)N(C)C(c1ccc(N(C)C)cc1)c1nnnn1-c1c(C)cccc1C (stereo not drawn)	active: 5.22 µM

Structure (SMILES)	Potency
c1ccc(-c2nn3c(-c4ccccc4)nnc3s2)cc1	inactive
N#Cc1ccc(CSc2nnc3[nH]c(=O)cc(N)n23)cc1	active: 4.15 µM
COc1ccc(Cl)cc1NC(=O)C1CC(c2ccccc2O)=NO1 (stereo not drawn)	inactive
CC(=O)Nc1cccc(NC(=O)CSc2nc(=O)n(Cc3ccccn3)c3c2CCC3)c1	inconclusive [inhibitor, single point]
Cc1ccc(C(C)C)c(OCC(=O)NCC(c2cccs2)N2CCOCC2)c1 (stereo not drawn)	active: 13.1 µM
COc1cccc(C(=O)CN2CCN(S(=O)(=O)c3cccc([N+](=O)[O-])c3)CC2)c1	inactive
CN(Cc1ccccc1)Cc1nc2c([nH]1)c(=O)n(C)c(=O)n2C	inconclusive [inhibitor, single point]
CCOC(=O)C1CCCN(C(=O)c2ccc(CS(=O)(=O)Cc3ccccc3C)o2)C1 (stereo not drawn)	inactive
COC(=O)C1=C(c2c(C)noc2C)C[C@@H]2CC[C@H]1N2C(=O)N1CCC(O)(c2ccc(Cl)cc2)CC1	active: 6.57 µM
O=C(CN1CCOCC1)Nc1nc2ccc([N+](=O)[O-])cc2s1	inactive
COC(=O)c1ccc(NC(=O)C2CCCN2S(=O)(=O)c2ccc(F)cc2)cc1 (stereo not drawn)	inactive
CC(=O)c1cccc(NC(=O)COc2ccccc2C(=O)c2cc(C#N)c(=O)n(C3CCCCC3)c2)c1	inconclusive [inhibitor, single point]
CCC(=O)Nc1nc(C)c(C(=O)NC2CCCCC2)s1	active: 3.7 µM
O=C(c1ccco1)[C@@H]1[C@@H]2C(=O)N(c3ccc(F)cc3)C(=O)[C@@H]2C2c3ccccc3C=CN21 (stereo partly drawn)	inactive
CCNC(=S)N1CCN(c2nc(-c3cccc(OC)c3)cs2)CC1	inconclusive [inhibitor, single point]
C=C(C)CNC(=S)N/N=C(\C)c1ccc(OC)cc1	active: 13.1 µM
CC(=O)Oc1ccc(C(=O)c2ccccc2)c(OC(C)=O)c1	inconclusive [inhibitor, full curve, poor fit]
CCN(CC)c1ccc(NC(=O)CCCCCN2C(=O)c3ccccc3C2=O)cc1	inconclusive [inhibitor, full curve]
CC(NC(=O)C(Cc1ccccc1)n1cccc1)c1ccccc1 (stereo not drawn)	inconclusive [inhibitor, partial curve, poor fit]
CN(C(=O)CSc1nc(-c2ccc(C(C)(C)C)cc2)c(C#N)c(=O)[nH]1)C1CCCCC1	inactive
CCOC(=O)c1[nH]c(C)c(C(=O)Nc2ccc3c(c2)OCCO3)c1C	inconclusive [inhibitor, single point]
O=C(CC1SC(=O)N(c2ccccc2)C1=O)Nc1cccc2ccccc12 (stereo not drawn)	inactive
CCC(C)Cn1c(O)cc2nn(-c3nc4ccccc4s3)c(=O)c-2c1C (stereo not drawn)	inconclusive [inhibitor, single point]
Cc1ccc(OCc2nnc(SCc3cc(=O)[nH]c4ccccc34)o2)cc1	inconclusive [inhibitor, single point]
